Results taken from PubChem BioAssay AID588855 (National Center for Advancing Translational Sciences (NCATS), 2011).
In all, about 410,000 compounds went through this assay and about 5,000 (1.2%) were called active. Inconclusive means that the source gave no clear call. Such entries were picked first, then a sample of the others. The call rests on the fitted dose curve; in most records, active means well fitted inhibition curve with a large enough effect; inconclusive means small, poorly fitted or top-dose-only effect; inactive means no such curve, though single readings can be large or run the other way. A potency beside an inconclusive call is a rough fit, not a confirmed value.

Assay: qHTS for Inhibitors of TGF-b; further: nearly all actives have a fitted effect of over 65% in size
Details: HepG2 CAGA-GFP TGF-b/SMAD3 reporter, GFP fluorescence, 18 h, TGF-beta stimulated, 500 pg/mL final; series mostly up to 46.1 µM; activity, negative = inhibition: at the top concentration
How it was run: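 Cell-based qHTS in HEPG2 carrying a CAGA-GFP Smad reporter; compounds added before 500 pg/mL final TGF-beta, 18 h incubation at 37 degrees C, GFP fluorescence quantified per cell by imaging cytometry.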
On the % scale 0 is the no-effect control and ±100 the full control effect; potency means the concentration at half of the fitted maximal effect; tags describe the fitted curve by direction and shape.

SMILES | Potency | activity, negative = inhibition
CC(C)(C)N(Cc1ccccc1)C(=O)c1cc2ccccc2o1 | inconclusive: 35.5 µM [inhibitor, single point] | –
Cn1cc(S(=O)(=O)N2CCCCCC2)cc1C(=O)NCc1ccc(Cl)cc1 | inconclusive: 22.4 µM [inhibitor, single point] | –
Cc1onc(-c2ccccc2Cl)c1C(=O)Oc1ccc(Br)cc1 | inconclusive: 35.5 µM [inhibitor, single point] | –
O=C(Nc1nnc([C@@H]2C[C@H](O)[C@@H](CO)O2)s1)c1c(F)cccc1F | – | inactive: -4.13%
O=C(NNc1nc2ccccc2s1)Nc1ccc(Cl)c(Cl)c1 | inconclusive: 12.6 µM [inhibitor, partial curve, poor fit] | –
CC(C)NC(=O)Nc1ccc2c(c1)C(=O)N([C@H](C)CO)C[C@H](C)[C@@H](CN(C)Cc1ccc(C(F)(F)F)cc1)OCCCC[C@H](C)O2 | active: 15.8 µM | –
CCN1CCOC(=O)C1CC(=O)Nc1cccc(OC)c1 (stereo not drawn) | – | inactive: -15.5%
Cc1ccc(-c2csc3ncnc(OCC(=O)NC(=O)NCc4ccco4)c23)cc1 | inconclusive: 35.5 µM [inhibitor, single point] | –
COc1ccc(CCNC(=O)c2c(C)oc3nc(C)nc(N4CCOCC4)c23)cc1OC | – | inactive: -19.5%
NC(N)=Nc1nc(-c2ccccc2)c2cc(Cl)ccc2n1 | inconclusive: 25.1 µM [inhibitor, single point] | –
CN(C)c1ccc(/C=N/NC(=O)CNC(=O)c2ccc3c(c2)OCCO3)cc1 | inconclusive: 12.6 µM [inhibitor, partial curve, poor fit] | –
Cc1ccc(S(=O)(=O)N2CCC(C(=O)NNC(=O)c3ccccc3O)CC2)cc1C | inconclusive: 35.5 µM [inhibitor, single point] | –
Cc1ccc(CN2CCC(CNC(=O)c3ccc(NC(=O)C4=CSCCO4)cc3)CC2)cc1 | – | inactive: -14%
CCCCSc1nnc([C@@H]2CCCN2C(=O)OC(C)(C)C)o1 | inconclusive: 0.251 µM [inhibitor, full curve, poor fit] | –
O=[N+]([O-])c1ccc(N=Nc2c(O)[nH]c3ccc(F)cc23)cc1 | – | inactive: -0.525%
Cc1ccccc1NC1=C/C(=N\S(=O)(=O)c2ccc(C(=O)O)cc2)c2ccccc2C1=O | inconclusive: 20 µM [inhibitor, single point] | –
CC1CCCN(C(=O)c2cccc(S(=O)(=O)Nc3cc(C(F)(F)F)ccc3Cl)c2)C1 (stereo not drawn) | inconclusive: 35.5 µM [inhibitor, single point] | –
O=C(/C=C/c1ccccc1)CCN1CCOCC1 | active: 7.08 µM | –
O=[N+]([O-])c1ccc(C=NN2CCNC2=S)o1 | inconclusive: 35.5 µM [inhibitor, single point] | –
Cc1c(Cl)cccc1NC(=O)Cn1nc(C(F)(F)F)c2c1CCC2 | inconclusive: 10 µM [inhibitor, partial curve, poor fit] | –
O=C1CCCCCN1Sc1ccccc1 | inconclusive: 1.78 µM [inhibitor, full curve] | –
CCOc1ccccc1C(=O)N1CCN(CCc2ccccn2)CC1 | – | inactive: -12.3%

SMILES | Potency | activity, negative = inhibition
Cc1ccc(CNC(=O)NC2COc3ccccc3C2)cc1 (stereo not drawn) | inconclusive: 5.62 µM [inhibitor, single point] | –
COc1cccc2cc(-c3cn4c(n3)sc3cc(F)ccc34)c(=O)oc12 | inconclusive: 35.5 µM [inhibitor, single point] | –
COC(=O)c1ccc(NS(=O)(=O)c2cc3c4c(c2)C(C)C(=O)N4CCC3)cc1 (stereo not drawn) | inconclusive: 11.2 µM [inhibitor, partial curve, poor fit] | –
COc1ccc(NS(=O)(=O)c2cccc(C(=O)NNC(=O)c3cc(C)oc3C)c2)cc1 | – | inactive: -13.1%
Cc1ccc(F)c([C@H]2[C@@H]3C=CCC[C@@]3(C)C(=O)N2Cc2ccccc2)c1 | inconclusive: 15.8 µM [inhibitor, single point] | –
CC(=O)Nc1ccc(C)cc1-c1nc2ccccc2n(CC(=O)c2ccc(Cl)cc2)c1=O | inconclusive: 0.199 µM [inhibitor, full curve, poor fit] | –
CCC(CC)C(=O)Nc1ccc(Sc2ccc([N+](=O)[O-])cc2)cc1 | inconclusive: 28.2 µM [inhibitor, single point] | –
C=CCn1c(O)c(N=NC(=S)Nc2ccccc2C)c2cc(S(=O)(=O)N3CCOCC3)ccc21 | inconclusive: 3.98 µM [inhibitor, full curve, poor fit] | –
CCCS(=O)(=O)NC(=O)C1(C)CCN(C(=O)c2ccccc2OC(C)=O)C1 (stereo not drawn) | – | inactive: -2.77%
CCc1ccc(NC(=O)C(=O)NCCN2CCN(Cc3ccc([N+](=O)[O-])cc3)CC2)cc1 | – | inactive: -1.7%
Clc1cccc(N2CCN(c3ncnc4c3nc3n4CCCC3)CC2)c1 | inconclusive: 14.1 µM [inhibitor, partial curve, poor fit] | –
O=C1CCN(Cc2ccc(Br)cc2)CCN1[C@H](CO)Cc1ccccc1 | inconclusive: 3.55 µM [inhibitor, full curve, poor fit] | –
O=C(Nc1ccc(Cl)c(Cl)c1)Oc1ccc(NC(=O)c2ccco2)cc1 | inconclusive: 22.4 µM [inhibitor, single point] | –
CCS(=O)(=O)Nc1ccc(C2=NN(S(=O)(=O)CC)C(c3cccs3)C2)cc1 (stereo not drawn) | – | inactive: 1.87%
O=C(/C=C/c1ccccc1)Oc1cccc2cccnc12 | active: 3.98 µM | –
Nc1ncnc(Oc2cccc3cccnc23)c1[N+](=O)[O-] | inconclusive: 25.1 µM [inhibitor, single point] | –
COc1ccccc1-c1nn2c(=O)cc(CN3CCN(S(=O)(=O)c4ccc(C)cc4)CC3)nc2s1 | – | inactive: 1.05%
CCCNC(=O)C1CCN(c2ccc(S(=O)(=O)N3CCOCC3)cc2Cl)CC1 | inconclusive: 35.5 µM [inhibitor, single point] | –
CCOc1ccccc1OCc1nn2c(COc3ccccc3)nnc2s1 | – | inactive: 23.5%
CN(C)CCCN(C(=O)c1ccc(C(=O)c2ccccc2)cc1)c1nc2c(F)cccc2s1 | inconclusive: 22.4 µM [inhibitor, single point] | –
CC(C)c1ccc(Nc2ncc3c(n2)CCN(C(=O)Nc2ccc(F)c(Cl)c2)C3)cc1 | inconclusive: 12.6 µM [inhibitor, partial curve, poor fit] | –
